# The whole screen tested about 2,000 compounds, of which about 110 (5.5%) showed an effect of 50% or more. Some of the results follow.
# Target: Genome polyprotein (dengue virus type 2) (UniProt P29990)
# [1] = Thailand/16681/1984, Concentration 25.0 uM, Number of replicates 1.0
smiles,measurement,setting,value
Cc1cc(CO)c2cccc(NC(=O)[C@@H]3CC(=O)CCN3)c2n1,inhibition,"Thailand/16681/1984, Concentration 49.95 uM, Number of replicates 2.0, Standard deviation 1.684279261738791 %",1.29%
same,inhibition,"Thailand/16681/1984, Concentration 99.9 uM, Number of replicates 2.0, Standard deviation 1.6842793565692 %",-1.57%
Cc1cc(NC(=O)C2CCN(c3ccc(C=O)cc3)CC2)ncc1I,inhibition,[1],12.5%
Cc1cnccc1NC(=O)c1cccnc1OCC(C)C,inhibition,"Thailand/16681/1984, Concentration 49.5 uM, Number of replicates 2.0, Standard deviation 1.0025877150906009 %",-3.33%
same,inhibition,"Thailand/16681/1984, Concentration 99.01 uM, Number of replicates 2.0, Standard deviation 1.539326482177684 %",-2.27%
same,inhibition,"Thailand/16681/1984, Concentration 198.0 uM, Number of replicates 2.0, Standard deviation 3.346222906476355 %",0.296%
COc1cccc(Cn2ncc(C3CCNCC3)c2C)n1,inhibition,"Thailand/16681/1984, Concentration 49.5 uM, Number of replicates 2.0, Standard deviation 0.6865140838852157 %",-2.28%
same,inhibition,"Thailand/16681/1984, Concentration 99.01 uM, Number of replicates 2.0, Standard deviation 1.8857815426916016 %",-0.708%
same,inhibition,"Thailand/16681/1984, Concentration 198.0 uM, Number of replicates 2.0, Standard deviation 1.685903611817113 %",-0.083%
CC(C)NC(=O)[C@H](Nc1ccc2c(c1)CNC2)c1cc(Cl)cc2[nH]c(-c3ccccc3)nc12,inhibition,"Thailand/16681/1984, Concentration 99.5 uM, Number of replicates 2.0, Standard deviation 1.6408381783405366 %",91.5%
same,inhibition,"Thailand/16681/1984, Concentration 295.6 uM, Number of replicates 2.0, Standard deviation 0.018514941963441705 %",97.4%
O=Cc1ccc(N2CCC(C(=O)Nc3cc(C(F)(F)F)ccc3Cl)CC2)cc1,inhibition,[1],11.7%
NCc1cccc(NC(=O)Cc2ccc(OCc3ccccc3)cc2)c1,inhibition,"Thailand/16681/1984, Concentration 49.5 uM, Number of replicates 2.0, Standard deviation 0.3616312555788717 %",-3.09%
same,inhibition,"Thailand/16681/1984, Concentration 99.01 uM, Number of replicates 2.0, Standard deviation 0.27421312838327405 %",-2.89%
same,inhibition,"Thailand/16681/1984, Concentration 198.0 uM, Number of replicates 2.0, Standard deviation 0.0354621897496722 %",-1.31%
CC(C)(O)CN(Cc1ccccc1)C(=O)C1CCN(c2ccc(C=O)cc2)CC1,inhibition,[1],14.3%
CN1C(=O)c2ccc(NC(=O)C3CCN(c4ccc(C=O)cc4)CC3)cc2C1=O,inhibition,[1],15.7%
Cc1cnccc1NC(=O)c1cc(C#N)n(C)c1C,inhibition,"Thailand/16681/1984, Concentration 49.5 uM, Number of replicates 2.0, Standard deviation 1.7932303086690136 %",-2.73%
same,inhibition,"Thailand/16681/1984, Concentration 99.01 uM, Number of replicates 2.0, Standard deviation 1.8848942250899017 %",-2.4%
same,inhibition,"Thailand/16681/1984, Concentration 198.0 uM, Number of replicates 2.0, Standard deviation 3.3866692139435313 %",-1.63%
CNC(=O)c1ccccc1NC(=O)C1CCN(c2ccc(C=O)cc2)CC1,inhibition,[1],-5.29%
CCn1ccnc(N2CC[C@H](c3ccc(C#N)cc3)C2)c1=O,inhibition,"Thailand/16681/1984, Concentration 49.5 uM, Number of replicates 2.0, Standard deviation 0.7276744432598639 %",8.12%
same,inhibition,"Thailand/16681/1984, Concentration 99.01 uM, Number of replicates 2.0, Standard deviation 0.49854124686905393 %",17.1%
same,inhibition,"Thailand/16681/1984, Concentration 198.0 uM, Number of replicates 2.0, Standard deviation 0.36791973396409117 %",32.1%
CCCOc1ccc(NC(=O)C2CCN(c3ccc(C=O)cc3)CC2)cc1,inhibition,[1],0.636%
CCn1ccnc(N2CC[C@H](c3c[nH]c4ccccc34)C2)c1=O,inhibition,"Thailand/16681/1984, Concentration 49.5 uM, Number of replicates 2.0, Standard deviation 0.7663200687712609 %",7.74%
same,inhibition,"Thailand/16681/1984, Concentration 99.01 uM, Number of replicates 2.0, Standard deviation 0.5205284148002172 %",15.6%
same,inhibition,"Thailand/16681/1984, Concentration 198.0 uM, Number of replicates 2.0, Standard deviation 1.2986233015210575 %",29.9%
Cc1cn[nH]c1-c1nn(C)cc1NC(=O)c1ccccc1C(F)(F)F,inhibition,"Thailand/16681/1984, Concentration 49.5 uM, Number of replicates 2.0, Standard deviation 0.3615954096842132 %",-0.036%
same,inhibition,"Thailand/16681/1984, Concentration 99.01 uM, Number of replicates 2.0, Standard deviation 5.6696304765625785 %",2.81%
same,inhibition,"Thailand/16681/1984, Concentration 198.0 uM, Number of replicates 2.0, Standard deviation 0.11218732430326796 %",-0.957%
CC(C)(CO)NC(=O)c1cc(Cl)cc(NC(=O)c2cnc(-c3ccc(Cl)cc3)[nH]2)c1,inhibition,"Thailand/16681/1984, Concentration 49.5 uM, Number of replicates 2.0, Standard deviation 0.4056359371721259 %",3.86%
same,inhibition,"Thailand/16681/1984, Concentration 99.01 uM, Number of replicates 2.0, Standard deviation 1.3045248718369469 %",8.39%
same,inhibition,"Thailand/16681/1984, Concentration 198.0 uM, Number of replicates 2.0, Standard deviation 1.1566416956558625 %",13.4%
Cc1cnccc1NC(=O)CCCn1c(=O)oc2ccccc21,inhibition,"Thailand/16681/1984, Concentration 49.5 uM, Number of replicates 2.0, Standard deviation 0.2250312122126386 %",-1.7%
same,inhibition,"Thailand/16681/1984, Concentration 99.01 uM, Number of replicates 2.0, Standard deviation 1.6434097261555802 %",-2.49%
same,inhibition,"Thailand/16681/1984, Concentration 198.0 uM, Number of replicates 2.0, Standard deviation 0.5817239529640948 %",-1.81%
CCCC[C@H](NC(C)=O)C(=O)N[C@H](C(=O)NCc1ccc(CN)cc1)c1ccc(OCc2ccccc2)cc1,inhibition,"Thailand/16681/1984, Concentration 49.5 uM, Number of replicates 2.0, Standard deviation 1.556187076043376 %",-3.73%
same,inhibition,"Thailand/16681/1984, Concentration 99.01 uM, Number of replicates 2.0, Standard deviation 1.4164928639405643 %",9.94%
same,inhibition,"Thailand/16681/1984, Concentration 198.0 uM, Number of replicates 2.0, Standard deviation 0.0753329398535839 %",99.6%
c1cc(CN2CCC(c3c[nH]c4cccnc34)CC2)c2cn[nH]c2c1,inhibition,"Thailand/16681/1984, Concentration 49.5 uM, Number of replicates 2.0, Standard deviation 2.4318292420624372 %",-3.58%
same,inhibition,"Thailand/16681/1984, Concentration 99.01 uM, Number of replicates 2.0, Standard deviation 2.156937991960047 %",-1.91%
same,inhibition,"Thailand/16681/1984, Concentration 198.0 uM, Number of replicates 2.0, Standard deviation 1.6889834084783495 %",0.616%
O=Cc1ccc(N2CCC(C(=O)NCc3c(Cl)cccc3Cl)CC2)cc1,inhibition,[1],10.1%
Cn1cc(CNC(=O)c2ccccc2[C@@H]2CCCCN2)cn1,inhibition,"Thailand/16681/1984, Concentration 49.5 uM, Number of replicates 2.0, Standard deviation 1.3250088302691205 %",-2.36%
same,inhibition,"Thailand/16681/1984, Concentration 99.01 uM, Number of replicates 2.0, Standard deviation 0.6184423716804828 %",-1.37%
same,inhibition,"Thailand/16681/1984, Concentration 198.0 uM, Number of replicates 2.0, Standard deviation 0.12536703369097324 %",-0.243%
